{
  "source": "paper PMC4336329",
  "about": "(PLoS ONE, 2015)",
  "note": "The whole screen tested about 310,000 compounds, of which about 2,200 (0.71%) showed an effect of 50% or more. The effect is printed as a negative number. The list shows a part of the results.",
  "data": [
    {"molecular_target": "human ether-à-go-go-related gene (hERG) potassium channel (human, UniProt Q12809)", "sequence (Q12809 whole entry, looked up)": "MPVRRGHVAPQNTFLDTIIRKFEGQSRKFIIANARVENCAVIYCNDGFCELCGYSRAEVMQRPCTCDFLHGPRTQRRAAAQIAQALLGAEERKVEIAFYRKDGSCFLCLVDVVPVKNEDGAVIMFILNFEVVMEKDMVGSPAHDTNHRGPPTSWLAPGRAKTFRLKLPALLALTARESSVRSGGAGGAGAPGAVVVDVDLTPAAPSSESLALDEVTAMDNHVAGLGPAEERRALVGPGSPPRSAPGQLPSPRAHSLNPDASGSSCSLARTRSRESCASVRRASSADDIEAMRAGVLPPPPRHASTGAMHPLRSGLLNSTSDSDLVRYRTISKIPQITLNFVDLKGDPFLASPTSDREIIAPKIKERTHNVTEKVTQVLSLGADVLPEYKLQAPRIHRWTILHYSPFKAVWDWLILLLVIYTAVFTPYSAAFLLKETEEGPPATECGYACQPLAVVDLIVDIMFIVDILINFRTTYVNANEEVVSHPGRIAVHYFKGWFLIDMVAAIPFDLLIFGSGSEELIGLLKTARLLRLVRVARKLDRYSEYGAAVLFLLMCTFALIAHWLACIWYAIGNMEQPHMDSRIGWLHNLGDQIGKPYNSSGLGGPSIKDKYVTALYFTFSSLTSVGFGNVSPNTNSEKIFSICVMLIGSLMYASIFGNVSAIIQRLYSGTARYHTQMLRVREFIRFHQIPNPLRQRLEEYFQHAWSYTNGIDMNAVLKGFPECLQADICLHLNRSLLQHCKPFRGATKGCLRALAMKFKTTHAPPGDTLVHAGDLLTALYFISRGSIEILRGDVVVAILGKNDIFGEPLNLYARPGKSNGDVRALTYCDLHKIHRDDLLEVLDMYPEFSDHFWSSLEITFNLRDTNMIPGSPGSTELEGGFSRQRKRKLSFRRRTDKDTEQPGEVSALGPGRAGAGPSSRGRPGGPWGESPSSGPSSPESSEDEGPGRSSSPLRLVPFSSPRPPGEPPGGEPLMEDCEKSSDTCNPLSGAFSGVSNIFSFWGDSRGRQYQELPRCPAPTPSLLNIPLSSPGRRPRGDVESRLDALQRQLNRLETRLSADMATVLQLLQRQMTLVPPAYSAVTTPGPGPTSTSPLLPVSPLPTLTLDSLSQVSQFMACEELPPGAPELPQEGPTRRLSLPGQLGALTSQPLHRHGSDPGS", "assay": "primary screen, population patch clamp on CHO cells stably expressing hERG", "units": {"hERG current change (%, negative = inhibition) at 1uM": "%"}, "values": [
      {"smiles": "CCc1ccc(NC(=O)N2CCN(c3ccccc3)CC2)cc1", "hERG current change (%, negative = inhibition) at 1uM": 12.7},
      {"smiles": "CN(C)c1nc(NCc2ccccc2)nc(N/N=C/c2ccc(Cl)cc2Cl)n1", "hERG current change (%, negative = inhibition) at 1uM": 20.3},
      {"smiles": "Cc1csc2ncnc(N3CCN(C(=S)Nc4ccc(C(F)(F)F)cc4)CC3)c12", "hERG current change (%, negative = inhibition) at 1uM": 8.21},
      {"smiles": "CCCc1c(C(=O)N/N=C/C(C)=C/c2ccco2)nnn1-c1nonc1N", "hERG current change (%, negative = inhibition) at 1uM": 8.25},
      {"smiles": "COC(=O)CSc1nc(NC(C)=O)nc(C)c1Br", "hERG current change (%, negative = inhibition) at 1uM": 1.91},
      {"smiles": "Cc1noc(C)c1CSCC(=O)N(C)CC(=O)Nc1ccccc1C(F)(F)F", "hERG current change (%, negative = inhibition) at 1uM": 14.8},
      {"smiles": "CCn1c(C)nc2cc(C(=O)NNS(=O)(=O)c3c(C)c(C)cc(C)c3C)ccc21", "hERG current change (%, negative = inhibition) at 1uM": -0.83},
      {"smiles": "CC(Oc1ccc([N+](=O)[O-])cc1)C(=O)NCC1CCCO1", "note": "(stereo not drawn)", "hERG current change (%, negative = inhibition) at 1uM": 9.28},
      {"smiles": "COc1ccc(NC(=O)COC(=O)c2cccc(S(=O)(=O)N3CCCCC3)c2)c(OC)c1", "hERG current change (%, negative = inhibition) at 1uM": 4.49},
      {"smiles": "Cc1ccc(/C(=N\\S(=O)(=O)c2ccc(Br)cc2)Nc2ccccc2C)cc1", "hERG current change (%, negative = inhibition) at 1uM": 6.23},
      {"smiles": "CC1=NOC(=O)/C1=C/c1ccc(O)c(Cl)c1", "hERG current change (%, negative = inhibition) at 1uM": 13.6},
      {"smiles": "Cc1ccc(Cn2c(=O)c3c(nc4n3CCN4Cc3ccco3)n(C)c2=O)cc1", "hERG current change (%, negative = inhibition) at 1uM": 1.58},
      {"smiles": "COc1cccc(-n2nnc3c(=O)n(CC(=O)Nc4ccccc4C)cnc32)c1", "hERG current change (%, negative = inhibition) at 1uM": 3.6},
      {"smiles": "CC1(C)CC(NC(=O)COc2ccc3c4c(c(=O)oc3c2)CCCC4)CC(C)(C)N1", "hERG current change (%, negative = inhibition) at 1uM": 11.3},
      {"smiles": "CCN(C(=O)c1cnc(OC)cc1C(F)(F)F)c1ccc(Cl)cc1", "hERG current change (%, negative = inhibition) at 1uM": 8.24},
      {"smiles": "CN(CC1CCCN(CCc2ccc(F)cc2)C1)C(=O)CCC(F)(F)F", "note": "(stereo not drawn)", "hERG current change (%, negative = inhibition) at 1uM": -31.6},
      {"smiles": "CCCC(=O)N1CCc2cc(OC)c(OC)cc2C1COc1ccccc1OC", "note": "(stereo not drawn)", "hERG current change (%, negative = inhibition) at 1uM": 13.6},
      {"smiles": "CC(C)CC(=O)c1c[nH]c(C(=O)N2CCN(Cc3ccccc3)CC2)c1", "hERG current change (%, negative = inhibition) at 1uM": 2.04},
      {"smiles": "O=C(O)c1ccc(N=C2NC(=O)C(CO)(CO)S2)cc1", "hERG current change (%, negative = inhibition) at 1uM": 20.4},
      {"smiles": "CSc1ccc(CCNS(=O)(=O)c2csc(C(N)=O)c2)cc1", "hERG current change (%, negative = inhibition) at 1uM": 1.03},
      {"smiles": "O=C(NC(=S)Nn1cnnc1)c1ccccc1Br", "hERG current change (%, negative = inhibition) at 1uM": 0.675},
      {"smiles": "Cn1c(SCC(=O)NC(c2ccccc2)c2ccccc2)nnc1-c1cccs1", "hERG current change (%, negative = inhibition) at 1uM": 6.81},
      {"smiles": "Cc1nc2c(C(=O)NCCc3ccccc3)c[nH]n2c(=O)c1Cl", "hERG current change (%, negative = inhibition) at 1uM": 2.64},
      {"smiles": "CCOC(=O)c1ccc(Nc2nnc3nc(C)cc(C)n23)cc1", "hERG current change (%, negative = inhibition) at 1uM": 15.7}
    ]}
  ]
}
